The record followed here is PubChem BioAssay AID1159614 (National Center for Advancing Translational Sciences (NCATS), 2016).

Screen size: about 45,000 compounds; about 65 (0.1%) were called active. Calls come from the whole dose curve; as a rule, active = well fitted activation curve with a large enough effect; inconclusive = small, poorly fitted or top-dose-only effect; inactive = no such curve, though single readings can be large or run the other way. This is one part of the list.

The target of the assay is Galactocerebrosidase (Homo sapiens) (UniProt P54803). The assay can be described thus: A Novel Cell-Based Assay to Identify Small Molecules for B -Galactocerebrosidase. Note: 0% is about no effect; nearly all actives have a fitted effect of over 65% in size. As to conditions: 145M-Twi-hGALC-G270D cells (Twitcher mouse brain line with human GALC G270D), HMU-beta-Gal fluorescence, 48 h; series mostly up to 57.5 µM; activation: at the top concentration. Put shortly: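 Fluorescence readout: HMU-β-gal cleavage by mutant GALC (0.1 mM final, citrate/phosphate pH 5.2 with 1 mg/mL taurocholate), stopped with carbonate/bicarbonate plus Triton X-100. Cells: murine Twitcher 145M-Twi expressing human G270D GALC; qHTS for activators.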
Chain of UniProt P54803 (P54803 whole entry, looked up): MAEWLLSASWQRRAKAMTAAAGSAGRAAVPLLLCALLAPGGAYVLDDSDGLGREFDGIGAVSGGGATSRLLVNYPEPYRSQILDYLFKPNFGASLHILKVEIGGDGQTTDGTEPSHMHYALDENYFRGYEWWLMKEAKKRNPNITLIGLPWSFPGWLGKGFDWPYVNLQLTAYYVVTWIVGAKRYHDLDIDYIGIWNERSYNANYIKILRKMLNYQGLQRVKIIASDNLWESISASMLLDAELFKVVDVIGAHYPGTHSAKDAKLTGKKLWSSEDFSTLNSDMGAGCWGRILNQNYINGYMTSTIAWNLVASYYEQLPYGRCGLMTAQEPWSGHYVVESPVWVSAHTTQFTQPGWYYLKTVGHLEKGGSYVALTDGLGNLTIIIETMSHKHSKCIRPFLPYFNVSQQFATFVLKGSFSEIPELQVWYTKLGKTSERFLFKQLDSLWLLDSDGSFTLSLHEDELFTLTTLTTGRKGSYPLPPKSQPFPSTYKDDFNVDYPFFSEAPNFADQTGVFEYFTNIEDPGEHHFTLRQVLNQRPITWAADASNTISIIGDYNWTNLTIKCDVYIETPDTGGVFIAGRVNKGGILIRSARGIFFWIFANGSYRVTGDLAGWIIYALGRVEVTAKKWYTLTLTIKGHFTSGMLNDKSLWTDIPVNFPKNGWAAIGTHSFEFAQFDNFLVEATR
Turning to `Cc1ccc(CS(=O)(=O)c2ncc(Cl)c(C(=O)Nc3nnc(C(C)C)s3)n2)cc1`, the “activation” value is inactive: -18.6%.
The same measure for `CCN1CCN(c2ncc3c(n2)CCN(Cc2ccccc2C)C3)CC1`: inactive: -11.2%.
In the case of `CCC(=O)N1CCc2cc(CNS(=O)(=O)c3ccc(CC(C)C)cc3)ccc21` it was inactive: 0.808%; in that of `Oc1c(C(c2ccc(F)cc2)N2CCN(Cc3ccccc3)CC2)sc2nc(-c3ccco3)nn12` (stereo unspecified), inactive: -3.15%.
The same measure for `CCCCNC(=O)CCCN1C(=O)c2ccccc2Sc2ncccc21`: inactive: -11.3%; for `CN1C(=O)C2(c3ccccc31)N(c1cccc(C(F)(F)F)c1)C(=O)CS2(=O)=O` (stereo unspecified): inactive: -23.1%; for `Cc1cccc(N2CCN(C(=O)Cn3c(-c4cccs4)cc4ccccc43)CC2)c1C`: inactive: -6.51%.
Turning to `COc1cc(CN(C(=O)c2ccccc2F)C2CCS(=O)(=O)C2)cc(OC)c1OC` (stereo unspecified), the “activation” value was inactive: -28.5%.
For `CCCS(=O)(=O)N1CC(=O)N(c2ccc(C)c(Cl)c2)C(C)(C(=O)NC2CCCCCC2)C1` (stereo unspecified), the “activation” value was inactive: -12.2%.
In the case of `Cc1ccc(C)c(N2C(=O)N(Cc3c(F)cccc3Cl)c3ccccc3S2(=O)=O)c1` it was inactive: 6.46%; in that of `COc1ccc(N(CC(=O)Nc2ccc(C)c(C)c2)S(=O)(=O)c2ccc(C)cc2)cc1OC`, inactive: -12%.
The same measure for `Cc1cccc(C)c1NC(=O)CN1C(=O)CCSc2ccc(S(=O)(=O)N3CCCC3)cc21`: inactive: -11.7%; for `COC(=O)c1cc(NC(=O)Nc2ccc3snnc3c2)cc(C(=O)OC)c1`: inactive: -4.49%.
In the case of `O=C(COc1ccccc1)Nc1sc2c(c1C(=O)Nc1ccccc1Cl)CCCCC2` it was inactive: -6%.
As to `CCN(Cc1nc(-c2cccc(C)c2)no1)S(=O)(=O)c1ccc(C)cc1`, the “activation” value was inactive: -5.41%.
On to `CC(=O)OCc1cc(=O)n2nc(C3CCCCC3)sc2n1`, for which the “activation” value is inactive: -5.47%.
For the compound `Cc1ccccc1-c1noc(-c2ccc(N3CCN(c4ccccc4)CC3)c([N+](=O)[O-])c2)n1`, the “activation” value is inactive: 3.97%.
In the case of `COc1ccc(CNC(=O)Cn2nc(C)n3cccc3c2=O)cc1` it was inactive: -13.2%; in that of `COc1ccc(-c2nc(SCC(=O)NC3CCCC3)c(-c3ccc(OC)cc3)[nH]2)cc1`, inactive: -23.6%; in that of `COc1ccccc1N1CCN(C(=O)c2cc3c(=O)n(C)c4ccccc4c3s2)CC1`, inactive: -11.8%.
The same measure for `CCc1cccc2c(CCO)c[nH]c12`: inactive: -10.1%; for `Cc1ccc(NC(=O)C(=O)NCC(c2cccnc2)N2CCOCC2)cc1` (stereo unspecified): inactive: -8.39%.
The same measure for `CC1CCN(C(=O)c2ccc3c(c2)N(Cc2ccccc2F)C(=O)c2ccccc2S3(=O)=O)CC1`: inactive: -3.44%; for `COc1ccc(S(=O)(=O)n2nc(C)c(S(=O)(=O)N3CCCCC3)c2C)cc1`: inactive: -19.2%.
Take `Cc1c(Cl)cccc1-n1ncc(C(=O)N2CCN(C)CC2)c1C1CCN(C(=O)OC(C)(C)C)CC1`: the “activation” value is inactive: 19%.
In the case of `CC(=O)c1ccc(N2CCN(c3ncnc4c3c(-c3ccccc3)cn4-c3ccc(C)c(Cl)c3)CC2)cc1` it was inactive: -0.106%; in that of `CC(C)Cn1c(=O)c2ccccc2n2c(CCC(=O)N3CCN(c4cccc(Cl)c4)CC3)nnc12`, inactive: -7.75%; in that of `COCCCN(Cc1ccco1)C(=O)c1cc2c(s1)-c1ccccc1OC2`, inactive: -1.86%.
Consider `COc1ccccc1-c1noc(-c2ccc(N3CCOCC3)c([N+](=O)[O-])c2)n1`, for which the “activation” value is inactive: 18.8%.
For the compound `CCc1ccc(NC(=O)CC(c2cc(OC)c(OC)c(OC)c2)N2Cc3ccccc3C2=O)cc1` (stereo unspecified), the “activation” value is inactive: 3.15%.
In the case of `COc1ccc(CCNC(=O)Cn2cc(C(=O)c3ccc(Cl)cc3)c(=O)c3ccc(C)nc32)cc1OC` it was inactive: -6.83%.
In the case of `FC(F)(F)c1cccc(-n2cc(-c3ccccc3)c3c(N4CCCCC4)ncnc32)c1` it was inactive: 7.22%.
In the case of `CCOC(=O)C1CCN(c2nc3c(S(=O)(=O)c4ccc(Br)cc4)nnn3c3ccsc23)CC1` it was inactive: -18.1%; in that of `CCCN(CCC)CCNC(=O)Cn1cnc2sc(C)c(S(=O)(=O)N3CCC(C)CC3)c2c1=O`, inactive: -26%; in that of `COc1ccc(C(=O)NCCn2cc(SCc3cccc(F)c3)c3ccccc32)cc1OC`, inactive: -26.3%.
In the case of `COc1ccccc1CNC(=O)CN1C(=O)CCc2cc(S(=O)(=O)N3CCCCC3)ccc21`, the “activation” value is inactive: 7.53%.
The same measure for `Cc1ccc(N2CC(C(=O)NCCS(=O)(=O)N3CCN(c4ccccc4)CC3)CC2=O)cc1` (stereo unspecified): inactive: -20.2%; for `COc1ccc(S(=O)(=O)N(CCc2ccccc2)CC(=O)NCc2ccccc2)cc1`: inactive: -14.3%; for `COCCN1C(=O)c2oc3cc(C)cc(C)c3c(=O)c2C1c1cccc(O)c1` (stereo unspecified): inactive: -13.1%.
The same measure for `CCOC(=O)c1cccc(NC(=O)Cn2nc3c(cc2=O)CCCC3)c1`: inactive: -3.67%.
The same measure for `CCN(CC)C(=O)CSc1nnc2ccc3ccccc3n12`: inactive: -10.8%.
For `CCCn1cc(S(=O)(=O)c2cccc(Cl)c2)c(=O)c2cc(F)c(N3CCOCC3)cc21`, the “activation” value was inactive: -9.26%.
The same measure for `Cc1ccc(-c2c(CN3CCN(c4cc(C)ccc4C)CC3)csc2C)cc1`: inactive: -11.5%.
In the case of `Cc1c(C(=O)NC(C)c2ccccc2)sc2ncnc(N(C)C3CCCCC3)c12` (stereo unspecified) it was inactive: -19.2%.
In the case of `CCc1ccccc1NC(=O)CN1C(=O)CCn2nc(-c3cccn3C)cc21` it was inactive: -8.6%; in that of `Cc1ccc(-n2ncc3c(N4CCN(c5ccccc5)CC4)ncnc32)cc1C`, inactive: -9.62%; in that of `CCOC(=O)C1CCN(S(=O)(=O)c2cc(-c3onc(C)c3C)ccc2C)CC1`, inactive: -0.367%.
With `Cc1cccc(NC(=O)CN(c2ccc(C(C)C)cc2)S(=O)(=O)c2c(C)nn(C)c2C)c1C`, the “activation” value is inactive: -13.4%.
In the case of `COC(=O)c1c(NC(=O)c2cc(=O)c3c(C)cc(C)cc3o2)sc2c1CCCC2` it was inactive: -9.32%.
In the case of `CCc1ccccc1Nc1cc(C(=O)NCc2ccc(C)cc2)c2ccccc2n1` it was inactive: -10.1%.
Take `COc1ccc(N2C(=O)CSC23C(=O)N(C)c2ccccc23)cc1Cl` (stereo unspecified): the “activation” value is inactive: 4.18%.
The same measure for `O=C(c1c2c(nc3ccccc13)C(=O)N(C1CCCCC1)C2)N1CCN(c2ccc(F)cc2)CC1`: inactive: -8.43%.
The same measure for `CCOC(=O)N1CCN(C(=O)c2ccc3c(c2)N(Cc2ccccc2F)C(=O)c2ccccc2S3=O)CC1` (stereo unspecified): inactive: 3.04%.
As to `CC(=O)N1CCCc2cc(S(=O)(=O)N3CCC(C(=O)N(Cc4ccccc4)C(C)C)CC3)ccc21`, the “activation” value was inactive: -18.2%.
The same measure for `COCCn1c(C)cc(O)c(C(c2ccccc2)N2CCC(C)CC2)c1=O` (stereo unspecified): inactive: -13.9%; for `c1ccc2[nH]c(-c3cscn3)nc2c1`: inactive: 1.93%.
In the case of `CCCOc1ccccc1-c1nc(SCC(=O)c2ccccc2)n[nH]1` it was inactive: -37.1%.
The same measure for `Cc1ccc(-c2cc(NC(=O)c3ccccc3Cl)on2)cc1`: inactive: -24.3%; for `CCOC(=O)c1c(S(=O)(=O)N2CCCC(C(=O)Nc3ccc(OCC)cc3)C2)c(C)n(C)c1C` (stereo unspecified): inactive: -21.9%; for `CCOc1ccc(NC(=O)c2cc3sc(Cl)cc3n2CC)cc1`: inactive: -4.99%.
Take `COc1ccc(C)cc1Nc1nc2c(S(=O)(=O)c3cccc(Cl)c3)nnn2c2ccsc12`: the “activation” value was inactive: -0.699%.
With `Cc1ccc(S(=O)(=O)c2cn(Cc3cccc(F)c3)c3cc(N4CCCC4)c(F)cc3c2=O)cc1`, the “activation” value is inactive: -15.6%.
The same measure for `Cc1cc(C)n(C(C)CC(=O)NCc2ccccc2C)n1` (stereo unspecified): inactive: -14.4%; for `CC(=O)Nc1ccc(S(=O)(=O)N2CCC(c3ccncc3)CC2)cc1`: inactive: -9.09%; for `COc1ccc(Br)cc1C(=O)Nc1ccc2oc(-c3cccnc3)nc2c1`: inactive: -10.1%.
As for `CCCCN(CCCC)c1ncnc2c1cnn2-c1cccc(C)c1`, the “activation” value was inactive: -4.26%.
The same measure for `O=C(Nc1ccc(C(=O)N2CCN(c3ccc(F)cc3)CC2)cc1)c1nsc2ccccc12`: inactive: -8.07%; for `CCOc1cc(CNS(=O)(=O)c2ccc3c(c2)CC(=O)N3C)cc(OCC)c1OCC`: inactive: -16.8%; for `CCN1CCN(CCCNC(=O)c2ccc3nc(Cc4ccc(OC)cc4)oc3c2)CC1`: inactive: -4.06%.
The same measure for `COc1ccc(C2CC(=O)Nc3c2c(=O)nc2c(C)cccn32)cc1OC` (stereo unspecified): inactive: -6.95%.
In the case of `CCCCC1CCC(C(=O)N2CC(=O)Nc3ccc(F)cc3C2c2ccc(F)cc2)CC1` (stereo unspecified) it was inactive: -10.6%.
On to `COc1ccccc1CNC(=O)Cc1c(C)c2c(cc(C)c3c(C)c(C)oc32)oc1=O`, for which the “activation” value is inactive: -10.9%.
The same measure for `CCC1CN(C(=O)NCc2cccc(OC)c2)c2cc(Cl)ccc2O1` (stereo unspecified): inactive: -7.27%; for `Cc1ccccc1C(=O)c1cccn1CC(=O)NCc1ccc(Cl)cc1`: inactive: 2.36%; for `COc1ccc(OCc2ccc(-c3nc(C#N)c(N4CCN(C)CC4)o3)o2)cc1`: inactive: -10.3%.
In the case of `COc1ccc(CCNC(=O)CCCn2c(=O)c3cccn3c3cccnc32)cc1OC` it was inactive: -10.2%; in that of `Cc1ccc2c(CN3CCN(Cc4ccccc4Cl)CC3)cc(=O)oc2c1`, inactive: -10.2%; in that of `CCOc1ccc(CNC(=O)c2ccc(Sc3ccc(Cl)cc3)c(NC(C)=O)c2)cc1`, inactive: -0.376%.
The same measure for `COc1ccc(NC(=O)CSc2cn(CC(=O)N3CCCCC3)c3ccccc23)c(OC)c1`: inactive: -3.58%; for `CCCC(=O)Nc1ccc2c(c1)nc(CN1CCN(C(=O)OCC)CC1)n2C(C)C`: inactive: 6.87%.
Turning to `CCOC(=O)c1c(NC(=O)COc2cccc(C(F)(F)F)c2)sc2c1CCC(C)C2` (stereo unspecified), the “activation” value is inactive: -19.4%.
In the case of `CCn1c2ccccc2c2nnc(N3CCN(c4ccc(F)cc4)CC3)nc21` it was inactive: -16.1%.
For the compound `CCN(CC)c1nn2c(=O)c(C(=O)NCCc3ccc(C)cc3)cnc2s1`, the “activation” value is inactive: -14%.
In the case of `COc1ccc(NC(=O)c2ccc(CN3C(=O)CCn4nc(C)cc43)cc2)c(OC)c1` it was inactive: -2.11%; in that of `Cc1nc2sc(C(=O)N(C)Cc3ccccc3)c(NC(=O)c3ccccc3)c2c(C)c1Cl`, inactive: -14.4%.
The same measure for `CCOC(=O)c1cc2c(=O)n3ccccc3nc2n(CC2CCCO2)c1=NC(=O)c1ccc(C(C)(C)C)cc1` (stereo unspecified): inactive: -29%; for `COc1ccc(N2CC(NC(=O)COc3ccccc3F)CC2=O)cc1OC` (stereo unspecified): inactive: -12.3%; for `CCOc1ccc(NC(=O)CSc2oc(-c3ccco3)nc2S(=O)(=O)c2ccc(C)cc2)cc1`: inactive: -8.73%.
The same measure for `COc1ccc(C)c2sc(NC(=O)c3ccc(S(=O)(=O)N4CCCCC4)cc3)nc12`: inactive: -9.15%; for `CC(C)CCNC(=O)CN1C(=O)CCn2nc(-c3cn(C)c4ccccc34)cc21`: inactive: -16.2%; for `Cc1cc(C)cc(Nc2ncnc3c2nc2n3CCCC2)c1`: inactive: -2.25%.
On to `CCOc1ccc(CCNC(=O)c2ccc(-c3nc(CSc4ccc(C)cc4)c(C)o3)cc2)cc1`, for which the “activation” value is inactive: -19.4%.
Consider `CCCOc1ccc(/C=C/C(=O)Nc2sc(C)c(C)c2C(=O)OCC)cc1OC`, for which the “activation” value was inactive: -13.8%.
The same measure for `CCCN1CCN(CCCNC(=O)c2cc3c(Cl)nc4ccccc4c3s2)CC1`: inactive: -8.5%; for `CCOc1ccc(S(=O)(=O)NCCc2csc(-c3ccc(Cl)cc3)n2)cc1`: inactive: -16.1%; for `Cc1nnc(SCc2cc(=O)c3ccccc3[nH]2)s1`: inactive: -3.69%.
